# Experimental data published in the supplement of paper PMC8728848.
# Some of the results follow.
# Columns and labels:
# Experiment in all cases: glycan array binding signal (z-score within array); higher = stronger binding
# Conditions in all cases: glycan notation: IUPAC condensed, linker removed; mutation: R85A
# Fuc(a1-2)Gal = target: Fuc(a1-2)Gal
# Method in brief: (§1)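 Glycan array binding is given as a within-array Z-score, which can be read as non-binding when negative. The arrays, 3228 of them, came from the Consortium for Functional Glycomics database and were retained only where the protein sequence was available. Z-scores were averaged across arrays of the same protein sequence at different concentrations or buffers and across linkers.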
# Fuc(a1-2)Gal(b1-3)GalNAc = target: Fuc(a1-2)Gal(b1-3)GalNAc
# Method in brief: as §1
# [1] = target: Fuc(a1-2)Gal(b1-3)GalNAc(a1-3)[Fuc(a1-2)]Gal(b1-4)Glc
# Method in brief: as §1
# [2] = target: Fuc(a1-2)Gal(b1-3)GalNAc(a1-3)[Fuc(a1-2)]Gal(b1-4)GlcNAc
# Method in brief: as §1
# [3] = target: Fuc(a1-2)Gal(b1-3)GalNAc(b1-3)Gal
# Method in brief: as §1
# [4] = target: Fuc(a1-2)Gal(b1-3)GalNAc(b1-3)Gal(a1-4)Gal(b1-4)Glc
# Method in brief: as §1
# [5] = target: Fuc(a1-2)Gal(b1-3)GalNAc(b1-4)[Neu5Ac(a2-3)]Gal(b1-4)Glc
# Method in brief: as §1
# Fuc(a1-2)Gal(b1-3)GlcNAc = target: Fuc(a1-2)Gal(b1-3)GlcNAc
# Method in brief: as §1
# [6] = target: Fuc(a1-2)Gal(b1-3)GlcNAc(b1-2)Man(a1-3)[Fuc(a1-2)Gal(b1-3)GlcNAc(b1-2)Man(a1-6)]Man(b1-4)GlcNAc(b1-4)GlcNAc
# Method in brief: as §1
# [7] = target: Fuc(a1-2)Gal(b1-3)GlcNAc(b1-3)Gal(b1-4)Glc
# Method in brief: as §1
# [8] = target: Fuc(a1-2)Gal(b1-3)GlcNAc(b1-3)[Fuc(a1-3)[Gal(b1-4)]GlcNAc(b1-6)]Gal(b1-4)Glc
# Method in brief: as §1
# [9] = target: Fuc(a1-2)Gal(b1-3)[Fuc(a1-4)]GlcNAc
# Method in brief: as §1
# [10] = target: Fuc(a1-2)Gal(b1-3)[Fuc(a1-4)]GlcNAc(b1-2)Man(a1-3)[Fuc(a1-2)Gal(b1-3)[Fuc(a1-4)]GlcNAc(b1-2)Man(a1-6)]Man(b1-4)GlcNAc(b1-4)GlcNAc
# Method in brief: as §1
# [11] = target: Fuc(a1-2)Gal(b1-3)[Fuc(a1-4)]GlcNAc(b1-3)[Fuc(a1-3)[Gal(b1-4)]GlcNAc(b1-6)]Gal(b1-4)Glc
# Method in brief: as §1
# [12] = target: Fuc(a1-2)Gal(b1-3)[Fuc(a1-4)]GlcNAc(b1-3)[Gal(b1-4)GlcNAc(b1-6)]Gal(b1-4)Glc
# Method in brief: as §1
# Fuc(a1-2)Gal(b1-4)Glc = target: Fuc(a1-2)Gal(b1-4)Glc
# Method in brief: as §1
# Fuc(a1-2)Gal(b1-4)Glc6S = target: Fuc(a1-2)Gal(b1-4)Glc6S
# Method in brief: as §1
# Fuc(a1-2)Gal(b1-4)GlcNAc = target: Fuc(a1-2)Gal(b1-4)GlcNAc
# Method in brief: as §1
# [13] = target: Fuc(a1-2)Gal(b1-4)GlcNAc(b1-2)Man(a1-3)[Fuc(a1-2)Gal(b1-4)GlcNAc(b1-2)Man(a1-6)]Man(b1-4)GlcNAc(b1-4)GlcNAc
# Method in brief: as §1
# [14] = target: Fuc(a1-2)Gal(b1-4)GlcNAc(b1-3)Gal(b1-4)GlcNAc
# Method in brief: as §1
# [15] = target: Fuc(a1-2)Gal(b1-4)GlcNAc(b1-3)Gal(b1-4)GlcNAc(b1-3)Gal(b1-4)GlcNAc
# Method in brief: as §1
# [16] = target: Fuc(a1-2)Gal(b1-4)GlcNAc(b1-3)GalNAc
# Method in brief: as §1
# [17] = target: Fuc(a1-2)Gal(b1-4)GlcNAc6S
# Method in brief: as §1
# [18] = target: Fuc(a1-2)Gal(b1-4)[Fuc(a1-3)]GlcNAc
# Method in brief: as §1
# [19] = target: Fuc(a1-2)Gal(b1-4)[Fuc(a1-3)]GlcNAc(b1-2)Man(a1-3)[Fuc(a1-2)Gal(b1-4)[Fuc(a1-3)]GlcNAc(b1-2)Man(a1-6)]Man(b1-4)GlcNAc(b1-4)GlcNAc
# Method in brief: as §1
# [20] = target: Fuc(a1-2)Gal(b1-4)[Fuc(a1-3)]GlcNAc(b1-3)Gal(b1-4)[Fuc(a1-3)]GlcNAc
# Method in brief: as §1
# [21] = target: Fuc(a1-2)Gal(b1-4)[Fuc(a1-3)]GlcNAc(b1-3)Gal(b1-4)[Fuc(a1-3)]GlcNAc(b1-3)Gal(b1-4)[Fuc(a1-3)]GlcNAc
# Method in brief: as §1
# Fuc(a1-2)Gal6S(b1-4)Glc = target: Fuc(a1-2)Gal6S(b1-4)Glc
# Method in brief: as §1
# [22] = target: Fuc(a1-2)Gal6S(b1-4)Glc6S
# Method in brief: as §1
# [23] = target: Fuc(a1-2)Gal6S(b1-4)GlcNAc
# Method in brief: as §1
# Fuc(a1-2)[Gal(a1-3)]Gal = target: Fuc(a1-2)[Gal(a1-3)]Gal
# Method in brief: as §1
# [24] = target: Fuc(a1-2)[Gal(a1-3)]Gal(b1-3)GlcNAc
# Method in brief: as §1
# [25] = target: Fuc(a1-2)[Gal(a1-3)]Gal(b1-3)GlcNAc(b1-2)Man(a1-3)[Fuc(a1-2)[Gal(a1-3)]Gal(b1-3)GlcNAc(b1-2)Man(a1-6)]Man(b1-4)GlcNAc(b1-4)GlcNAc
# Method in brief: as §1
# [26] = target: Fuc(a1-2)[Gal(a1-3)]Gal(b1-4)Glc
# Method in brief: as §1
# [27] = target: Fuc(a1-2)[Gal(a1-3)]Gal(b1-4)GlcNAc
# Method in brief: as §1
# [28] = target: Fuc(a1-2)[Gal(a1-3)]Gal(b1-4)GlcNAc(b1-2)Man(a1-3)[Fuc(a1-2)[Gal(a1-3)]Gal(b1-4)GlcNAc(b1-2)Man(a1-6)]Man(b1-4)GlcNAc(b1-4)GlcNAc
# Method in brief: as §1
# [29] = target: Fuc(a1-2)[Gal(a1-3)]Gal(b1-4)[Fuc(a1-3)]GlcNAc
# Method in brief: as §1
# [30] = target: Fuc(a1-2)[Gal(a1-4)]Gal(b1-4)GlcNAc
# Method in brief: as §1
# [31] = target: Fuc(a1-2)[GalNAc(a1-3)]Gal
# Method in brief: as §1
# [32] = target: Fuc(a1-2)[GalNAc(a1-3)]Gal(b1-3)GalNAc(a1-3)[Fuc(a1-2)]Gal(b1-4)GlcNAc
# Method in brief: as §1
# [33] = target: Fuc(a1-2)[GalNAc(a1-3)]Gal(b1-3)GlcNAc
# Method in brief: as §1
# [34] = target: Fuc(a1-2)[GalNAc(a1-3)]Gal(b1-3)GlcNAc(b1-2)Man(a1-3)[Fuc(a1-2)[GalNAc(a1-3)]Gal(b1-3)GlcNAc(b1-2)Man(a1-6)]Man(b1-4)GlcNAc(b1-4)GlcNAc
# Method in brief: as §1
# [35] = target: Fuc(a1-2)[GalNAc(a1-3)]Gal(b1-4)Glc
# Method in brief: as §1
# [36] = target: Fuc(a1-2)[GalNAc(a1-3)]Gal(b1-4)GlcNAc
# Method in brief: as §1
# [37] = target: Fuc(a1-2)[GalNAc(a1-3)]Gal(b1-4)GlcNAc(b1-2)Man(a1-3)[Fuc(a1-2)[GalNAc(a1-3)]Gal(b1-4)GlcNAc(b1-2)Man(a1-6)]Man(b1-4)GlcNAc(b1-4)GlcNAc
# Method in brief: as §1
# [38] = target: Fuc(a1-2)[GalNAc(a1-3)]Gal(b1-4)GlcNAc(b1-3)Gal(b1-4)GlcNAc
# Method in brief: as §1
# [39] = target: Fuc(a1-2)[GalNAc(a1-3)]Gal(b1-4)GlcNAc(b1-3)Gal(b1-4)GlcNAc(b1-3)Gal(b1-4)GlcNAc
# Method in brief: as §1
# [40] = target: Fuc(a1-2)[GalNAc(a1-3)]Gal(b1-4)[Fuc(a1-3)]GlcNAc
# Method in brief: as §1
# [41] = target: Fuc(a1-2)[GalNAc(a1-4)]Gal(b1-4)GlcNAc
# Method in brief: as §1
# [42] = target: Fuc(a1-2)[GalNAc(b1-3)]Gal
# Method in brief: as §1
# Fuc(a1-3)GlcNAc = target: Fuc(a1-3)GlcNAc
# Method in brief: as §1
# [43] = target: Fuc(a1-3)[Gal(b1-4)]Glc6S
# Method in brief: as §1
# [44] = target: Fuc(a1-3)[Gal(b1-4)]GlcNAc
# Method in brief: as §1
# [45] = target: Fuc(a1-3)[Gal(b1-4)]GlcNAc(b1-2)Man(a1-3)[Fuc(a1-3)[Gal(b1-4)]GlcNAc(b1-2)Man(a1-6)]Man(b1-4)GlcNAc(b1-4)GlcNAc
# Method in brief: as §1
# [46] = target: Fuc(a1-3)[Gal(b1-4)]GlcNAc(b1-3)Gal(b1-3)[Fuc(a1-4)]GlcNAc
# Method in brief: as §1
# [47] = target: Fuc(a1-3)[Gal(b1-4)]GlcNAc(b1-3)GalNAc
# Method in brief: as §1
# [48] = target: Fuc(a1-3)[Gal(b1-4)]GlcNAc(b1-4)Gal(b1-4)[Fuc(a1-3)]GlcNAc
# Method in brief: as §1
# [49] = target: Fuc(a1-3)[Gal(b1-4)]GlcNAc(b1-4)Gal(b1-4)[Fuc(a1-3)]GlcNAc(b1-4)Gal(b1-4)[Fuc(a1-3)]GlcNAc
# Method in brief: as §1
# [50] = target: Fuc(a1-3)[Gal(b1-4)]GlcNAc(b1-6)[Gal(b1-3)GlcNAc(b1-3)]Gal(b1-4)Glc
# Method in brief: as §1
# [51] = target: Fuc(a1-3)[Gal(b1-4)]GlcNAc6S
# Method in brief: as §1
binder,measurement,setting,value
"rAAL (Agrocybe aegerita), Q6WY08 (protein) MQGVNIYNISAGTSVDLAAPVTTGDIVTFFSSALNLNAGAGNPNNTTLNLFAENGAYLLHIAFRLQENVIIFNSRQPDGPWLVEQAVSDVANQFAGIDGKAMVTVFDHGDKYQVVINEKTVIQYTKQISGLTLSLSYNATEETSIFSTVVEAVTYTGLALEHHHHHH",glycan array binding signal (z-score),Fuc(a1-2)Gal,-0.121
same,glycan array binding signal (z-score),Fuc(a1-2)Gal(b1-3)GalNAc,-0.127
same,glycan array binding signal (z-score),[1],-0.131
same,glycan array binding signal (z-score),[2],-0.138
same,glycan array binding signal (z-score),[3],-0.127
same,glycan array binding signal (z-score),[4],-0.127
same,glycan array binding signal (z-score),[5],-0.122
same,glycan array binding signal (z-score),Fuc(a1-2)Gal(b1-3)GlcNAc,-0.124
same,glycan array binding signal (z-score),[6],-0.123
same,glycan array binding signal (z-score),[7],-0.13
same,glycan array binding signal (z-score),[8],-0.115
same,glycan array binding signal (z-score),[9],-0.136
same,glycan array binding signal (z-score),[10],-0.109
same,glycan array binding signal (z-score),[11],-0.13
same,glycan array binding signal (z-score),[12],-0.141
same,glycan array binding signal (z-score),Fuc(a1-2)Gal(b1-4)Glc,-0.134
same,glycan array binding signal (z-score),Fuc(a1-2)Gal(b1-4)Glc6S,-0.077
same,glycan array binding signal (z-score),Fuc(a1-2)Gal(b1-4)GlcNAc,-0.125
same,glycan array binding signal (z-score),[13],-0.124
same,glycan array binding signal (z-score),[14],-0.119
same,glycan array binding signal (z-score),[15],-0.114
same,glycan array binding signal (z-score),[16],-0.106
same,glycan array binding signal (z-score),[17],-0.133
same,glycan array binding signal (z-score),[18],-0.126
same,glycan array binding signal (z-score),[19],-0.138
same,glycan array binding signal (z-score),[20],-0.123
same,glycan array binding signal (z-score),[21],-0.118
same,glycan array binding signal (z-score),Fuc(a1-2)Gal6S(b1-4)Glc,-0.131
same,glycan array binding signal (z-score),[22],-0.137
same,glycan array binding signal (z-score),[23],-0.121
same,glycan array binding signal (z-score),Fuc(a1-2)[Gal(a1-3)]Gal,-0.137
same,glycan array binding signal (z-score),[24],-0.118
same,glycan array binding signal (z-score),[25],-0.093
same,glycan array binding signal (z-score),[26],-0.124
same,glycan array binding signal (z-score),[27],-0.127
same,glycan array binding signal (z-score),[28],-0.11
same,glycan array binding signal (z-score),[29],-0.122
same,glycan array binding signal (z-score),[30],-0.119
same,glycan array binding signal (z-score),[31],-0.126
same,glycan array binding signal (z-score),[32],-0.133
same,glycan array binding signal (z-score),[33],-0.127
same,glycan array binding signal (z-score),[34],-0.136
same,glycan array binding signal (z-score),[35],-0.122
same,glycan array binding signal (z-score),[36],-0.125
same,glycan array binding signal (z-score),[37],-0.112
same,glycan array binding signal (z-score),[38],-0.12
same,glycan array binding signal (z-score),[39],-0.122
same,glycan array binding signal (z-score),[40],-0.14
same,glycan array binding signal (z-score),[41],-0.138
same,glycan array binding signal (z-score),[42],-0.136
same,glycan array binding signal (z-score),Fuc(a1-3)GlcNAc,-0.134
same,glycan array binding signal (z-score),[43],-0.13
same,glycan array binding signal (z-score),[44],-0.142
same,glycan array binding signal (z-score),[45],-0.138
same,glycan array binding signal (z-score),[46],-0.132
same,glycan array binding signal (z-score),[47],-0.1
same,glycan array binding signal (z-score),[48],-0.114
same,glycan array binding signal (z-score),[49],-0.134
same,glycan array binding signal (z-score),[50],-0.112
same,glycan array binding signal (z-score),[51],-0.137
